Results reported in the supplement of paper PMC11417369.
This is one part of the list.

System: PfAP2-HC AP2 domain (GST-tagged)
Assay: gcPBM binding intensity (ln(normalized median fluorescence intensity)); higher = stronger DNA binding
How it was run: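 GST-tagged P. falciparum DNA-binding domains produced in E. coli were incubated for 1 h on an Agilent 4 × 180k array of primer-extended double-stranded 36-bp intergenic genomic probes with negative controls. Binding intensity is the highest Masliner-normalised natural-log median intensity across replicate spots of either probe orientation, with bound protein detected by Alexa488 anti-GST antibody at 488 nm.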

Sequence | gcPBM binding intensity (ln)
AAATTAAAATATAATACACACATAAAAAAAAAAAAA [CACACA_site4183] | 10.2
TATATATTTTTTTTTTGTACTCACAATATATGTATG [XGTACX_site8024] | 9.65
AATTTTTTATATGTCACACATTTATTATTATTATTA [CACACA_site4198] | 9.83
TGTAATATAAAATTTTGTACTCAAAAATTTATATAT [XGTACX_site3252] | 9.47
ACTTATAAAAACATATACCCCATCGCATTTTTTCCA [XGTACX_negctrl_site177] | 9.82
TTCCAAAAAGTTATTACACACATATGTGCACATATA [CACACA_site6465] | 9.87
TTCCAAACCTCATTATGGAAAATAAAAAAATAAAAA [XGTACX_negctrl_site17] | 9.28
ATAAAATATTTTTGAACATGCAGGTAAAAAATAAAA [TGCATGCA_site1019] | 9.64
AGAATATTATATTATGCATGCATATAGAAAAATATA [TGCATGCA_site302] | 9.68
TTTATTAGTAATTATACACACATATAAAATGAATAA [CACACA_site6754] | 9.67
TATATTTATAGGTACACACACACATATAAATAAATA [CACACA_site6345] | 10.5
ATAAAATTATATTTTGCATGCAGGCCTTTTTCTTAA [TGCATGCA_site1030] | 9.86
AAAAAAAAAAAAAACACACACATATATATATATATA [CACACA_site1891] | 10.4
TAAAAAAAATAGTCAAGTACATAAGAAGGGAAGAAA [XGTACX_site8733] | 9.81
TTATTCATATTATCATGTACTTATATATATTGTCAT [XGTACX_site2231] | 9.8
TTTAATTTTTTTAATTCACACATTATTCCATCCTTT [CACACA_site5480] | 9.69
AATAAATAAGCAACATGTACATACAAATATATACAT [XGTACX_site8529] | 9.85
ATTTTCCATTGTGCTACACACAACGGTTCGCAATAA [CACACA_site2974] | 9.76
ATCTAATAAAAATACACACACATATGATTTGTGAAT [CACACA_site1867] | 10.2

Sequence | gcPBM binding intensity (ln)
TTTTGTTTATTATGATTCAAAATGATTTTATCTTTG [TGCATGCA_negctrl_site425] | 9.5
TATTATATATATAAATGTACTTATTTTAATTCCCCT [XGTACX_site8638] | 9.51
AAAAAAACATGAAACACACACAAATATTTATTTATA [CACACA_site6967] | 10.2
TCTTTTAAAAAAAAAGGAGGAACATAAAAAGTAGAA [XGTACX_negctrl_site272] | 9.63
ATATAATTAAAATGCTCACACACATAAAAAAAAATT [CACACA_site2148] | 10
CACATATATATGTGTGCATGTTGTATTATATATTTA [TGCATGCA_site632] | 10.2
ATAATTACAAAATAAACACACATATAGATTTATATG [CACACA_site6343] | 10.1
TACATAATACATATAACACACACAATTATACATAAA [CACACA_site9060] | 10.4
ATTTTATTTTTTAAAGGTACAGTTACAGCTTATATA [XGTACX_site7513] | 9.51
GTACATATATACATTACACACGGTTTGATTTAAAAA [CACACA_site3379] | 9.75
ATATTTAAATGTAATACATGCAAATTTGAACATTTT [TGCATGCA_site736] | 9.75
TAATATATTAACATGGGTACATATTATTTCATGTGT [XGTACX_site5985] | 9.75
AAAAAAAAAAAAATCACACATATGTATTTATATATA [CACACA_site5790] | 9.56
AACAAACACGGACACACACACACACTAGAATGATTA [CACACA_site5364] | 10.7
AAAAATTTAAGTGGGGGTACATTTTTTTAACACCTT [XGTACX_site1093] | 9.88
TAAAAATGTGGACACACACACATATTTATATTTAAT [CACACA_site6827] | 10.1
TTTTACAAAATAAAAATATAGAATACGGTAAATTAT [GTGCAC_negctrl_site40] | 9.56
TGTTGATGATATTACACACCCAATGAGAAAAGGAAT [CACACA_site2072] | 9.81
AAATAAGAGCGTAGCACACACGCATTTTATAAATGT [CACACA_site741] | 9.87

Sequence | gcPBM binding intensity (ln)
TATCATTTTATTATTCTACACACTTATCTATAATTA [CACACA_site7894] | 9.88
TTTTTTTTTTTTTTTGCATGTTGTTTAATGTATTGT [TGCATGCA_site772] | 9.39
AAATATTTTTTTTCTACACACATACAAATATAGATT [CACACA_site7164] | 9.73
ATGCCCCATATAAACACACAAATAAAAAGAATATAC [CACACA_site7292] | 10.2
ATATTTAAAGAATAAGTGCAAAATGTAATTAATTTT [GTGCAC_site9901] | 9.7
TATATTTTATAAAAAAGTACACATGAAAATGTATTT [XGTACX_site5889] | 9.49
TGTAGTCTGGAGAAACGTACACAGTATCTGGTAACA [XGTACX_site4938] | 9.48
AAAGGGGATATATGAACACACAAAAAAAAAATATAT [CACACA_site2896] | 9.88
TATTTATTACTATGTAAACACACATGCAATATATGT [CACACA_site8288] | 9.88
TTTTTTCCTTTTAATTGTACACAGATATAATATATT [XGTACX_site2230] | 9.63
AAATTTTATTATAGCAGTACAATATAATATTATTAA [XGTACX_site1971] | 9.44
TGGTATGTTTTACAAAGTACCCATCGATTCTTATGT [XGTACX_site2822] | 9.61
GTACTCTTCTCCAGACTGCACTATACGACTCGTACA [GTGCAC_site9770] | 9.75
ATATATATATATATATGTACTTATATATAATATAGA [XGTACX_site3488] | 9.57
ATTACATACACGCGCACACACAAAAAAAAAAAAAAA [CACACA_site1334] | 9.98
AATATATTTTTCTACCGTACATAATAAAATATATAT [XGTACX_site1777] | 9.6
TATTTATTTATTTATTGTACATAAGTATATATTATA [XGTACX_site6566] | 9.65
GAACCACTAAAATGAGCATGCTCATATTTACATATA [TGCATGCA_site1033] | 9.7
